# PubChem BioAssay (NCI)
# Where a structure was tested more than once in an assay, its records may differ in their call.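 Percent growth is the endpoint: 0 to 100 indicates growth inhibition (40 means 60% inhibition), 0 means no net growth, and negative values indicate cell death.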 The source holds more than one record for some entries. They are shown here; other results are not. How the source made its calls: active means growth percent below 10; inactive means the rest. There may be further records. The screen tested this drug many times, at its own concentration, as given; one value stands for one run. Counts like (3×) say how often a value occurs here.
# Experiments:
# MDA-MB-231 breast = assay: NCI-60 one-dose screen, 48 h (100 = growth as untreated, 0 = no growth, -100 = all killed); details: 25 µM
# PC-3 prostate = assay: as above; details: 0.25 µM
structure (smiles),measurement,setting,value
COc1cccc2c1C(=O)c1c(O)c3c(c(O)c1C2=O)C[C@@](O)(C(=O)CO)C[C@@H]3OC1CC(N)C(O)C(C)O1 (stereo not given in full),growth,MDA-MB-231 breast; runs of 1996,"active: -57.2, -32.7, -63.7, -61.2, -42.1, -46.3, -47.3, -37.9, -26.8, -39.3, -47.9, -50.6, -63.9, -10.4, -54.9, -56.4, -51, -39.2, -67.2, -36.4, -32.1 (2×), -46.6, -40.7, -58.7, -19.1, -44.1, 1.37, -45.5, -64.5, -59.8, -59.9, -54.5, -66.5, -51.9, -46.8, -70.1, -55.5, -56.3, -66, -40.9, -100, -61.6, -51.2, -55.9, -49.4, -59.3, -66.2, -53, -23.1, -95.2, -62.8, -33.3, -20.1, -28.4, -53.1% and inactive: 88.3%, 23.8%, 19.4%"
same,growth,MDA-MB-231 breast; runs of 1997,"active: -63.5, -39.1, -52.6, -50.8, -59.4, -9.88, -55.3, -37.5, -22.1, -58, -44.6 (2×), -25.4, -53.3, -65.7, -54.3, -45.3, -77.1, -52.9, -23.9, -55.6, -50.2 (2×), -49.5, -66.2, -51.1 (2×), -38, -48.9, -11.5, -24.5 (2×), -39.2, -33.7, -73.1, -31.2, -64.8, -60.2, -47.3, -9.36, -50.9, -21.4, -31.6%"
same,growth,MDA-MB-231 breast; runs of 1998,"active: -64.4, -25.8, -26.4, -83.9, -39.9, -60.1, -27.3, -12.8, -50.9, -38.6, -31.9, -41.8, 0.113, -52.4, -29.3, -56.1, -62.4, -53.5, -7.03, -54.9, -57.2, 1.91, -38, -47.5, -56.6, -23.2%"
same,growth,MDA-MB-231 breast; runs of 1999,"active: -64.2, -11.7, -51.8, -67.7, -58.3, -100 (3×), -62.5, 0.0452, 2.07, -64.6, -23.3, 1.36%"
same,growth,MDA-MB-231 breast; runs of 2000,"active: -100% (2×), -70.5%, -96.9%"
same,growth,PC-3 prostate; runs of 2006,"inactive: 48%, 51.6%"
same,growth,PC-3 prostate; runs of 2007,"inactive: 43.9, 61.6, 56.6, 63.6, 65.2, 63.5, 60.2, 69.5, 49.3, 64.7, 60.7, 58.9, 59.3, 66.2, 49.9, 60.9, 65.5, 69.1, 69.6, 67.7, 61.5, 64.5, 72.5, 54.1, 73, 64.9, 69.9, 10.3, 55.4, 77.3, 65.4, 71.3, 40.2, 61.2, 68.5, 54.6, 72.2, 49.5, 37.7, 72.6%"
same,growth,PC-3 prostate; runs of 2008,"inactive: 66.7, 71.2 (2×), 59.4 (2×), 64.6 (2×), 70.9, 69 (2×), 60.7, 69.8, 67.7, 72.5, 70.1, 49.7, 51.7, 59.3, 29.1, 41.9, 50.3, 50.8 (2×), 31.9, 60.2, 59.2, 90.7, 44.2, 73.8, 67.5, 74.1, 74.6, 74.3, 62.7, 57.8, 63.8, 49.9, 64.4, 58.5, 60.1, 65.4%"
same,growth,PC-3 prostate; runs of 2009,"inactive: 67.8, 61.1, 66.6, 71.1, 76.3, 56.5, 69.1, 67.5 (2×), 64.4, 55.3, 61.5, 78.4, 65 (2×), 69.9, 68.2 (2×), 66.2, 65.7, 68.6, 68.4, 48.1, 55.8, 43.7, 55.5 (2×), 69.7 (2×), 61, 70.7, 63, 67.9, 53.7, 53, 57, 61.3, 57.2, 62, 52.7, 56.7, 57.1, 58.2, 59.8, 53.9, 70.4, 73.2, 63.9, 47.2, 59.7, 52.8, 59.3, 70.9, 81.2, 71.9, 74, 60.8, 69.5, 65.3, 63.7, 60.3, 62.5%"
same,growth,PC-3 prostate; runs of 2010,"inactive: 67.6 (2×), 59.4, 70.1, 61.9 (3×), 73, 66.6, 68.9, 66.2 (3×), 58.5, 59.6, 66 (2×), 61.5, 58.8, 62.5, 62.7, 75.1, 49.1, 64.4 (2×), 50.2, 64.5, 62.4, 54.9, 60.4, 67.2, 67.8, 54.1, 69.9, 66.3, 65.9, 57.8, 61.7, 64.8, 69.6 (2×), 65.3 (2×), 70.7 (2×), 67.5, 64.7, 63.5, 68.2, 56.2, 61.6, 63.8%"
same,growth,PC-3 prostate; runs of 2011,"inactive: 57.4 (2×), 59.2, 64.4, 64.6, 63.4 (2×), 67.3 (2×), 72.3, 63.7, 47, 61.7, 65.4 (2×), 62.6, 62.3 (2×), 68.2, 64.2, 61.1, 70.3 (2×), 70.5, 75.2, 72.2, 78.8, 77.9, 72.7, 71.5, 79.1, 69.4, 72.9, 60.4 (2×), 61.6, 63.5, 59.7, 57, 62.5, 55.5, 49.7, 66.3, 72.6, 71.6, 68.9, 70, 56.6, 74.9, 65, 68.5, 67.9, 73.5%"
same,growth,PC-3 prostate; runs of 2012,"inactive: 69.4, 56.5, 63.8, 57 (2×), 65.5, 64.7, 60.2, 56, 57.3 (3×), 61, 61.8 (2×), 58.3 (2×), 55.1, 59.2 (2×), 66.3, 59.4, 59.5 (2×), 61.6, 57.5, 61.3, 63.5, 60.1 (2×), 68.2, 64.8, 62 (2×), 64.6, 60.4 (2×), 61.2 (2×), 55.6 (2×), 36.5, 53.7, 60.6, 57.6, 45.1, 46.8, 73.9, 73.4, 67.7, 72.1, 70.2, 72, 70.6, 71, 54.9, 49.9, 56.8 (2×), 50.7, 49.7, 56.6, 63, 59.3, 51.7%"
same,growth,PC-3 prostate; runs of 2013,"inactive: 61.7, 64.2, 60.9, 62.1, 51.2 (2×), 65.9, 63.8 (2×), 69.8, 65.3, 70.1, 72.7 (2×), 69.5 (2×), 67.5, 64.9 (2×), 69.1 (2×), 72.2, 75.9, 71.3 (2×), 67.9 (2×), 56.9, 72.3, 67.2, 69.2 (3×), 65.2 (2×), 68.6, 65.4 (2×), 68.2, 81.1, 72.1, 60.2, 71, 62.4 (2×), 63.6, 62.3, 59.5, 67.8, 69.6, 50.9, 44.9, 61 (2×), 62, 60.8, 52.2, 51.7, 52, 52.5, 48.6, 57.1, 53.6, 58.7, 63.1, 54.7, 60.7%"
same,growth,PC-3 prostate; runs of 2014,"inactive: 60, 65.1 (3×), 47.9, 46.7, 59.4, 45.1, 69.9, 61.3, 56.5, 50.4, 59.3, 38.6, 71.1, 70.5, 59.5, 71.2, 54.1, 53, 65.2 (2×), 61.7 (2×), 69.1, 64.5 (2×), 68.6, 65 (2×), 64.6, 65.5 (3×), 62.4, 58.1, 58.9, 60.3, 57.9, 69.2, 64.9 (2×), 61.8, 64.4 (3×), 73.3, 71.6 (2×), 70.7, 66.7, 66.3, 59.2 (2×), 62.7, 69.6, 64.7, 64, 65.4 (2×), 61, 63.3, 65.9, 62.5, 60.2, 68.5, 60.4, 70, 70.3, 67.7, 67.2, 63.1, 66.6, 69.4%"
same,growth,PC-3 prostate; runs of 2015,"inactive: 71.6, 61.5, 56.1, 67.6, 60, 61.3, 63.7 (2×), 65.9, 62.7, 58.8, 57.4, 61.2, 61.9, 68.5, 59.8, 49.9 (2×), 48.9, 55.8 (2×), 53.9, 53.8 (2×), 57.7, 66.4, 55.1 (2×), 57.1, 55.6, 51, 48.7, 52.6, 59.7, 54.6, 53.5 (2×), 57, 54.4, 63.9, 57.2, 63.3, 51.5, 69.2, 61, 60.7, 64.6 (2×), 52, 53, 50.3, 52.4, 50, 53.3 (2×), 44.4, 47.9, 48.6, 50.1, 58.3, 50.2, 54.8, 63.5 (2×), 58.1, 65.3, 67.7, 58.5, 65, 68.9, 70.3, 66 (3×), 69.1, 70.9, 63.6, 69.4, 70.7%"
